Assay results from PubChem BioAssay AID1259400 (National Center for Advancing Translational Sciences (NCATS), 2018).
Among all 350,000 compounds or so, about 2,100 (0.6%) were called active. Inconclusive means that the source gave no clear call. Such entries were picked first, then a sample of the others.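 The calls were made as follows: active = activity change of -60% or lower, but not beyond a set lower limit; inconclusive = change between -60% and -40%, or beyond the set limit; inactive = change above -40%.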

biological target: Relaxin receptor 1 (Homo sapiens) (UniProt Q9HBX9); assay: qHTS Assay for Antagonists of the Relaxin Receptor RXFP1; conditions: HEK293-RXFP1, relaxin-stimulated cAMP HTRF, 30 min; at 57.5 µM; hits give low values
UniProt Q9HBX9, sequence (Q9HBX9 whole entry, looked up): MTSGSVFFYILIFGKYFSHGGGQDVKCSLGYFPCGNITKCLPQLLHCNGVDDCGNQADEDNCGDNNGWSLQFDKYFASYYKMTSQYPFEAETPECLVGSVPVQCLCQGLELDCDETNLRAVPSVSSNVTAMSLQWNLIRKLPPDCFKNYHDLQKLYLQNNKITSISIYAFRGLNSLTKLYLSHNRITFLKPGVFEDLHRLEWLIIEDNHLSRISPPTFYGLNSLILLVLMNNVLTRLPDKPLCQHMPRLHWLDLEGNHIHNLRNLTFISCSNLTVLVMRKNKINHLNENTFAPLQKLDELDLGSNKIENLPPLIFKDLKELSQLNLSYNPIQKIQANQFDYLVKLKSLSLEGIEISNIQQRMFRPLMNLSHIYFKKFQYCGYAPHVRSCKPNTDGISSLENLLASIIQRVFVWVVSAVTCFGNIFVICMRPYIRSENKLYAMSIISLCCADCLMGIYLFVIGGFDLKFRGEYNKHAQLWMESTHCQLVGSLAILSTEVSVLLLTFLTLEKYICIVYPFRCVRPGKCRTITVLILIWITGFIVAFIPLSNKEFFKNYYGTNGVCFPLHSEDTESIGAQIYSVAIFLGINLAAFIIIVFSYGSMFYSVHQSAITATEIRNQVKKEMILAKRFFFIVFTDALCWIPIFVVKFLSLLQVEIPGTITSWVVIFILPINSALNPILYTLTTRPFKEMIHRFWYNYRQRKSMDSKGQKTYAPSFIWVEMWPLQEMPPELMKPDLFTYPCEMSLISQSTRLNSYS
Description: The relaxin hormone is involved in the variety of biological functions in normal tissues and diseases. The role of relaxin is well-established in female reproduction and parturition, mammary gland and endometrial development, maintenance of myometrial quiescence during pregnancy. Relaxin signaling through its G protein-coupled receptor (GPCR) RXFP1 results in ECM remodeling through regulation of collagen deposition, cell invasiveness, proliferation and overall tissue homeostasis. […] Recombinant human relaxin (rhRlx) is currently being tested in clinical trials as a protective agent in congestive heart failure, in treating severe preeclampsia, and as an anti-fibrotic agent in various organs. […] Upon relaxin binding RXFP1 activation leads to the activation of adenylate cyclase (AC) via G?s. cAMP will activate PKA, which phosphorylates many signaling proteins. Thus, detection of cAMP increase is an easy and reliable indication of relaxin receptor activation. To screen for antagonists of the relaxin receptor, a HEK293T cell line stably transfected with RXFP1 was used. RXFP1 activation by relaxin in presence of various concentrations of tested compounds was assayed by changes in cAMP levels as detected with a time-resolved fluorescence energy transfer (TR-FRET) cAMP detection kit.
For the primary screening, we used HTRF(R) (Homogenous Time-Resolved Fluorescence) cAMP HiRange assay (Cisbio Bioassays, 62AM6PEJ). Presence of cAMP in the cell lysate disrupts binding between the Cryptate-labeled anti-cAMP and d2-labeled cAMP pair, leading to a decrease in TR-FRET signal. The libraries were screened at two doses (57microM and 11microM), followed by a confirmation of the hits at 7-point serial dilution in the range of final concentrations [57microM - 78nM]. Data were normalized to the controls for basal activity (buffer only) and 100% activity (5 nM porcine relaxin). The EC50 values were determined from concentration-response data modeled with the standard Hill equation. NCGC Assay Protocol Summary: HiHEK (Hawaiian HEK293 LGR7 stably transfected with human RXFP1) were grown in the following media: DMEM+10%FBS+Pen/Strep + Geneticin (1mg/ml). For the assay, the cells were seeded in DMEM+Pen/Strep (with no serum & selective antibiotics) at 2,100 cells/ 3microl/well with MultiDrop Combi dispenser (Thermo Scientific, Logan, UT) onto white tissue culture treated solid bottom1536-well plates (Greiner #789173-F) and allowed to attach/recover overnight at 37 degrees C, 5% CO2. Next, 23nl/well of compound solutions in DMSO were transferred into wells with a pintool (Kalypsis, San Diego, CA). […] EC80 (relaxin at 50pM final concentration) was dispensed to the rest of the plate except columns 1&2 which were used as a negative control (EC0, buffer only), 1microl/well also. The cells were stimulated by relaxin in the presence of compounds for 30 minutes at 37 degrees C, 5% CO2. The detection reagents were prepared individually by dilution in Lysis buffer (supplied with the assay kit) just prior to dispensing. 1microl/well of cAMP-d2 and 1microl/well anti-cAMP-Eu3+-Cryptate antibodies were added simultaneously with BioRAPTR FRDtrade mark Workstation (Beckman Coulter). The plates were incubated at ambient temperature for 30 minutes and, then, FRET signal was read on Envision plate reader (PerkinElmer, Waltham, MA), at wavelengths 340nm (excitation), 615nm & 665nm (emission of donor and acceptor channels respectively).
% is scaled to controls: 0 for no effect and ±100 for the full control effect.

Compound | activity change, negative = inhibition
CCCNC(=O)c1ccc(Cn2c(=O)c3cccn3c3cccnc32)cc1 | inactive: -8.99%
C=CCNC(=S)NS(=O)(=O)c1cccs1 | inconclusive: -40.8%
C=Cc1ccc(Cn2ccn(-c3ccc(F)c(F)c3)c(=O)c2=O)cc1 | inactive: 10.1%
COc1ccc(NC(=O)CSc2ncccn2)cc1S(=O)(=O)N1CCCCC1 | inactive: 7.01%
O=C(CNC(=O)c1cccc(F)c1)N/N=C/c1cc(Br)ccc1OCc1ccccc1 | inactive: -3.86%
Cc1cc(NC(=O)Cn2c(=O)oc3cc(S(=O)(=O)N4CCCC4)ccc32)ccc1Br | inconclusive: -50.4%
Cn1cc(S(=O)(=O)Nc2ccc(F)c(Cl)c2)c(=O)n(C)c1=O | inactive: 0.476%
CCCCCCCCNC(=O)/C(C#N)=C/c1ccccc1[N+](=O)[O-] | inconclusive: -54.7%
O=S(=O)(c1ccc(Cl)cc1)N1CCN(Cc2ccc(O)c3ncccc23)CC1 | inconclusive: -58.7%
CC(C)c1ccc(/C=C/C(=O)Nc2ccc(CN3CCOCC3)cc2)cc1 | inconclusive: -41.7%
Cc1nnnn1/C(=C\c1ccccc1)C(=O)OCC(=O)Nc1ccc(Cl)cc1F | active: -63.7%
N#C/C(=C/c1ccc(-c2ccccc2[N+](=O)[O-])o1)C(=O)NCCN1CCCCC1 | inconclusive: -40.2%
CN1CCC(OC(c2ccccc2)c2ccc(Cl)cc2)C1 (centres undefined) | inconclusive: -49.2%
CC(C)CCNC(=O)CCc1nnc(COc2ccccc2)o1 | inconclusive: -59.6%
CCOC(=O)c1c(C)n(-c2ccccc2)c2ccc(OC(=O)c3ccccc3NC(=O)C(C)(C)C)cc12 | active: -64%
CCCc1cnc2c(c1SCc1ccc(C(F)(F)F)cc1)c(=O)n(C)c(=O)n2C | inactive: -5.45%
CC(C)(C)c1ccc(-c2nc3cc(N)ccc3o2)cc1 | active: -83.7%
N=C1C(c2nc3ccccc3s2)=C(O)CN1NC(=O)c1c[nH]c2ccccc12 | inconclusive: -43.5%
O=C1NC(c2ccccc2Cl)Nc2ccccc21 (centres undefined) | inactive: -9.67%
CS(=O)(=O)N(CCC#N)Cc1ccc(C=O)o1 | inconclusive: -55.3%
O=C(CCc1ccc(O)cc1)NNC(=S)NCCc1ccccc1 | inconclusive: -48.7%
Cc1cccc(C(=O)NNC(=S)NC(=O)c2cccs2)c1 | inconclusive: -58.3%

Compound | activity change, negative = inhibition
Cc1cc(C)c(S(=O)(=O)NCCc2csc3nc(-c4ccc(Cl)cc4)nn23)c(C)c1 | inconclusive: -42.6%
COC(=O)c1ccccc1NC(=O)C1=C(C)C(=O)OC12CCC(C)CC2 (centres undefined) | inactive: -17.6%
Nc1ccc(C(=O)NCCCSc2ccccc2)cc1[N+](=O)[O-] | inconclusive: -40.5%
CCOC(=O)c1c(-c2ccccc2)oc2ccc(OCC(O)CNCCN(C)C)cc12 (centres undefined) | active: -100%
CCCC(O)(c1ccc(CC)cc1)C(CN1CCOCC1)c1ccccc1 (centres undefined) | active: -62.4%
COCCn1cnc2c(c1=O)c1nc3ccccc3nc1n2/N=C/c1ccco1 | inactive: -5.11%
Cc1cc(C(=O)N/N=C/c2cc(Cl)cc([N+](=O)[O-])c2O)n[nH]1 | inconclusive: -46.1%
O=Cc1cc(Cl)ccc1OCCN1CCC(Cc2ccccc2)CC1 | active: -109%
CCCCC1(C)OC(=O)C(=Cc2c[nH]c3ccccc23)C(=O)O1 (centres undefined) | inconclusive: -41.2%
N#Cc1nc(-c2ccccc2F)oc1NC1CCCCC1 | active: -60.1%
CC(NCC(O)COCCC12CC3CC(CC(C3)C1)C2)c1ccccc1 (centres undefined) | active: -62.2%
Cc1ccc(OCCCn2c(-c3ccc(Cl)cc3)nc3ccccc3c2=O)cc1C | inactive: 1.4%
O=C(O)c1ccc(Cl)c(NC(=S)NC(=O)c2cccc(COc3ccccc3)c2)c1 | inconclusive: -43.8%
COc1ccc(NC(=O)CCn2c(=S)[nH]c3ccccc3c2=O)cc1OC | active: -73.7%
CC1=NN(C(N)=S)C(=O)C1N=Nc1cccc(Cl)c1 (centres undefined) | inconclusive: -52.7%
CN(C)CCCN(C(=O)c1ccc2c(c1)CCCC2)c1nc2ccc(Cl)cc2s1 | active: -77.4%
O=C(NCCCN1CCCC1=O)c1cc(-c2ccc(F)cc2)nc2ccccc12 | inactive: -5.37%
CC(C)CCNC(=O)C(=O)Nc1cc2c3c(c1)CCC(=O)N3CCC2 | inconclusive: -58.1%
O=[N+]([O-])c1cccc2nc(-c3ccccc3)c(-c3ccccc3)nc12 | inactive: -22.5%
Oc1ccc(-c2nc3ccc(Cl)cn3c2Nc2ccc(Cl)cc2)cc1 | active: -67.1%
COc1ccc2nc(C)cc(NCc3cccc(C(F)(F)F)c3)c2c1 | inconclusive: -41.3%
CCn1c(=O)c(CCC(=O)N2CCN(c3ccccn3)CC2)c(C)c2c(C)nn(-c3cccc(C)c3)c21 | active: -103%
